About 230 (0.21%) of roughly 110,000 compounds showed an effect of 50% or more. This is one part of the list.
Each compound was assayed against DPAP1 (Plasmodium falciparum, UniProt Q8IIJ9) (assay: primary screen, percent inhibition; read by cleavage of a fluorogenic dipeptide substrate; higher = more effect of the substance).
Set-up: species or system P. falciparum D10 trophozoite lysates; single well
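Also: 30 min substrate incubation versus DMSO and 10 µM JCP410 controls.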

Chain of DPAP1 (Q8IIJ9 whole entry, looked up): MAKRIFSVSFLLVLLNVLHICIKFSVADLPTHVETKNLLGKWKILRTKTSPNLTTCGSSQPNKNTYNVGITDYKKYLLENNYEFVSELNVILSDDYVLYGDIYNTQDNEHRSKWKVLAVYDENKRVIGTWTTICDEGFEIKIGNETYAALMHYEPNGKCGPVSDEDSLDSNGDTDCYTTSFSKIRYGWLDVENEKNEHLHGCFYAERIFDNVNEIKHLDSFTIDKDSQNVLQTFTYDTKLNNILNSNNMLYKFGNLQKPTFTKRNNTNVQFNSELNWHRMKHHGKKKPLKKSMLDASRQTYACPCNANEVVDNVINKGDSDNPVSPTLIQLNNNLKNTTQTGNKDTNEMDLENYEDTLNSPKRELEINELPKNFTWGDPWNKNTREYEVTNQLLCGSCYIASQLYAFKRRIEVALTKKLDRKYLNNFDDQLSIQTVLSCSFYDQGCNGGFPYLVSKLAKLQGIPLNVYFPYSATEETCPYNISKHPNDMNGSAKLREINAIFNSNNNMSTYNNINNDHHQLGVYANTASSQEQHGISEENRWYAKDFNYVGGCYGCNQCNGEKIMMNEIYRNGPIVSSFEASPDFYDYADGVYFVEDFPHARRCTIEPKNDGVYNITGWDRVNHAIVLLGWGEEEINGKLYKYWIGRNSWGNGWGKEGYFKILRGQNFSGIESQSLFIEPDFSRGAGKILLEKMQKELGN

Row | Compound | % Inhibition @ 10 uM
1 | COc1cc(S(=O)(=O)NC2CC(C)(C)NC(C)(C)C2)c(OC)cc1Cl | -3.43%
2 | CCOc1ccc(-c2c(C)nn3c(-c4ccccc4)c(C(=O)NCc4ccco4)cnc23)cc1OCC | -0.12%
3 | O=C(NCc1cccnc1)C1CCC(CNS(=O)(=O)c2ccccc2)CC1 (centres unmarked) | 2.35%
4 | O=[N+]([O-])c1cc2c(cc1CN1CCN(c3ccccc3F)CC1)OCO2 | -1.07%
5 | CN1CCCc2c1nc1ccccc1c2N | -6.09%
6 | O=C(NC1CCCCC1)C(Cc1ccc([N+](=O)[O-])cc1)N1C(=O)c2ccccc2C1=O (centres unmarked) | -0.736%
7 | Cc1ccc(/C=C(\NC(=O)c2ccccc2)C(=O)NCc2ccc(Cl)cc2)o1 | 5.58%
8 | Cn1c(=O)c2cc(C#N)c(N)nc2n(C)c1=O | -1.37%
9 | COc1ccc(CCC2=NCCn3cccc32)cc1 | -5.9%
10 | Cc1ccc(Cn2c(C)c3cnn(CC(=O)N4CCCCCC4)c(=O)c3c2C)cc1 | -7.72%
11 | COc1ccc(C(=O)Nc2cc(Cl)ccc2Cl)c(OC)c1 | 8.63%
12 | O=C1OC(c2cccc3ccccc23)=N/C1=C/c1cccs1 | -5.11%
13 | Oc1nc(-c2ccccc2)nc2sc3c(c12)CCCCC3 | -3.39%
14 | CN(C)CCN1C(C(=O)c2ccccc2)=C(OC(=O)c2ccccc2)c2ccccc2S1(=O)=O | 2.41%
15 | CCN(CC)C(=O)CCNC(=O)Cn1ccc2ccccc2c1=O | 8.44%
16 | COc1cccc(/C=C2/C(=N)N3N=C(c4ccccc4Cl)SC3=NC2=O)c1O | -7.18%
17 | O=C(Cn1cnc2c(nnn2-c2ccc(F)cc2)c1=O)NC1CCCC1 | -3.94%
18 | Cc1n[nH]c2c1C(c1ccc(C(C)C)cc1)C(C#N)=C(N)O2 (centres unmarked) | 5.31%
19 | CCN1CC2=C(OC(N)=C(C#N)C2c2ccccc2F)/C(=C/c2ccccc2F)C1 (centres unmarked) | 3.05%
20 | CC(=O)C1=C(O)C(=O)N(CCCN2CCOCC2)C1c1ccc(F)cc1 (centres unmarked) | -3.01%
21 | Cc1cc(C)nc(SCCn2c(N3CCOCC3)nc3c2c(=O)[nH]c(=O)n3C)n1 | 4%
22 | O=C(NCCc1nc2ccccc2n1CCCOc1ccccc1)C1CCCCC1 | -1.74%
23 | O=C(COc1ccccc1)n1c2ccccc2c2ccccc21 | 2.38%
24 | N#CC1=C(N)Oc2c(c(=O)oc3ccccc23)C1c1cc(Br)cs1 (centres unmarked) | 0.317%
25 | COc1ccc(Nc2nc(-c3c(C)nc4sccn34)cs2)cc1 | -2.71%
26 | CN1CCN(C(=O)c2ccc(COc3cc(Cl)ccc3Cl)o2)CC1 | -1.33%

Row | Compound | % Inhibition @ 10 uM
27 | CCc1ccc(C2c3c(-c4ccccc4O)n[nH]c3C(=O)N2Cc2ccco2)cc1 (centres unmarked) | 0.366%
28 | COc1cccc(N2C(=O)CC(N3CCC(C)CC3)C2=O)c1 (centres unmarked) | -8.46%
29 | Oc1oc2ccccc2c2nc(-c3cc(-c4ccccc4)nn3-c3ccccc3)nc1-2 | 0.605%
30 | Cc1cccc(C(=O)Nc2ccc(S(=O)(=O)N3CCCC3)cc2)c1 | 0.0974%
31 | COCCN1C(=O)c2ccccc2C(C(=O)NCCCOC(C)C)C1c1cn(C)c2ccccc12 (centres unmarked) | -2.8%
32 | Cc1ccc(C(C)C)cc1OCCCCCN1CCNCC1 | -7.81%
33 | COc1ccc2c(CNCCc3ccc(OC)c(OC)c3)c(C(=O)O)n(Cc3ccccc3F)c2c1 | -4.37%
34 | O=C(NCc1ccccc1)Nc1cccc(Cl)c1 | 2.47%
35 | CCOC(=O)c1c(-n2cccc2)sc2c1CCCC2=O | 4.44%
36 | COc1cc(NC(=O)c2ccc(Br)o2)ccc1NC(=O)C(C)C | -1.65%
37 | CCOc1ccccc1C(=O)N1CCN(c2ccc(Cl)cc2)CC1 | 0.727%
38 | N/C(=N\OC(=O)c1ccc(Cl)cc1)c1nonc1N | -0.615%
39 | COc1cccc(OC)c1C(=O)N1CCN(Cc2ccc(Br)cc2)CC1 | 1.71%
40 | COc1cccc(CNC(=O)C2CCCN(S(=O)(=O)N(C)C3CCCCC3)C2)c1 (centres unmarked) | -4.68%
41 | COc1ccc(S(=O)(=O)NCCc2ccco2)cc1OC | 3.47%
42 | Cc1nnc(SCC(=O)O)n1/N=C/c1cc(Br)ccc1O | 5.77%
43 | O=C(C1=C(O)C(=O)N(c2cccnc2)C1c1ccc(O)cc1)c1ccc(Br)cc1 (centres unmarked) | -16.1%
44 | COc1cc(C(C)=O)ccc1OCC(O)CN1CCN(c2cccc(Cl)c2)CC1 (centres unmarked) | 1.02%
45 | c1cn(CCCNc2ncnc3sc4c(c23)CCCCC4)cn1 | -3.4%
46 | COc1cccc2cc(-c3nc(-c4ccccc4)cs3)c(=O)oc12 | 12.9%
47 | COc1cccc(NC(=O)c2scc3c2CCCC3)c1 | -6.36%
48 | Cc1ccc(C2C(C(=O)O)c3ccccc3C(=O)N2C)c(C)c1 (centres unmarked) | 5.12%
49 | CC1(C)CC(NC(=O)c2ccco2)CC(C)(CNC(=O)c2ccco2)C1 (centres unmarked) | -2.8%
50 | CN1CCN(C2=NC(=O)/C(=C/c3cccc(F)c3)S2)CC1 | -0.48%
51 | O=S(=O)(/N=C1\C=C2N(CCO)CCOC2(O)c2ccccc21)c1ccc(F)cc1 (centres unmarked) | 0.0539%
52 | COC(=O)C1=CN(C2CCCC2)C=C(C(=O)OC)C1c1ccc(Cl)s1 | -9.5%

Row | Compound | % Inhibition @ 10 uM
53 | COCCCNCc1c(C(=O)O)c(C)n(Cc2ccccc2F)c1C | -3.67%
54 | Oc1cccnc1CCc1ccccc1 | -0.999%
55 | O=C(O)c1nccnc1C(=O)NCc1ccccc1 | 3.96%
56 | O=C(CCC1CCCC1)N1CCNCC1 | -0.962%
57 | Fc1ccccc1N1CCN(Cc2ccoc2)CC1 | -0.828%
58 | CCN(C(=O)/C=C/c1ccccc1)c1ccccc1 | -0.197%
59 | Cc1cc(C)n(C(=O)c2cc3c(C)nn(-c4ccccc4)c3s2)n1 | -1.68%
60 | CCOc1ccccc1-n1nnc(-c2nc(-c3cccnc3)no2)c1N | 5.95%
61 | CCN1C(=O)CC(C(=O)Nc2ccc(OC)cc2)S/C1=N\c1ccc(OC)cc1 (centres unmarked) | -3.78%
62 | Cc1ccc(P(=O)(O)c2ccc(C)cc2)cc1 | -3.93%
63 | Cc1ccccc1OCC(=O)Nc1ccccc1C(N)=O | -4.97%
64 | Sc1nnc(-c2ccc3ccccc3n2)n1-c1ccccc1 | -1.46%
65 | CC(C)(C)C1CCc2c(sc3ncn(CC(=O)Nc4ccccc4)c(=O)c23)C1 (centres unmarked) | 3.97%
66 | Cc1ccc(S(=O)(=O)Nc2cccc(/C=C/C(=O)O)c2)cc1 | -1.97%
67 | COc1ccc(Br)cc1CNC(=O)CCc1nc(-c2ccc(C)cc2)no1 | -1.59%
68 | CCOc1ccc(C(=O)Nc2ccc(Br)c(C)c2)cc1 | 0.823%
69 | Cc1noc2ncn(CC(=O)NCCN3CCOCC3)c(=O)c12 | 2.4%
70 | C=C(C)CN(CC)Cc1ccc(-c2ccccc2[N+](=O)[O-])o1 | -1.75%
71 | CCc1ccc(NC(=O)c2cccc(OC)c2)cc1 | -7.08%
72 | COCCCn1c(=N)c(S(=O)(=O)c2ccc(C)cc2)cc2c(=O)n3cccc(C)c3nc21 | 5.12%
73 | O=C(Nc1cc(Cl)c(O)c(Cl)c1)C1CCCCC1 | 2.03%
74 | CC(C)OCCCNC(=O)Cn1ncc2c(Cl)cccc21 | 0.596%
75 | Cc1nc2sc3c(Cl)ncnc3c2c2c1CCCC2 | -8.67%
76 | CN(c1ccccc1)S(=O)(=O)c1ccc(N)cc1 | 3.57%
77 | C#CCOc1nc(OCC#C)nc(N2CCCCC2)n1 | -2.92%
78 | CC[C@@H](C)[C@H](NC(=O)Cc1c[nH]c2ccccc12)C(=O)N[C@@H](CCc1ccccc1)C(=O)CO | 3.66%

Row | Compound | % Inhibition @ 10 uM
79 | CC(C)C(=O)Nc1ccc(C(=O)Nc2ccccc2C(F)(F)F)cc1 | -5.14%
80 | CC(=O)c1ccc(NC(=O)COc2ccc(Cl)cc2C)cc1 | -0.116%
81 | COCCn1c(CCC(=O)NCCc2ccc(OC)c(OC)c2)nc2cccnc21 | -4.24%
82 | CCN(CC)CCN(CC)Cc1cccc(F)c1 | 2.7%
83 | COc1ccc(CCNC(=O)c2cc(=O)c3cc(Cl)ccc3o2)cc1OC | -3.24%
84 | COc1ccc(-c2noc(-c3nnn(-c4ccc(C(C)C)cc4)c3N)n2)cc1 | -3.88%
85 | COc1ccc(C(=O)N2CCN(c3cccc(Cl)c3)CC2)cc1OC | -2.22%
86 | Cc1cc(NC(=O)COCc2cc(-c3ccc4c(c3)OCO4)on2)nn1Cc1ccc(Cl)cc1 | 1.34%
87 | Cc1cc(=O)n(CC(=O)NCc2ccc(OC(C)C)cc2)c2c1c(C)nn2C | 3.82%
88 | CCOc1ccc(C(=O)Nc2ccccc2OCC)cc1 | 3.49%
89 | CC(=O)Nc1ccc(NC(=O)Cn2cnc3ccccc3c2=O)cc1 | -3.78%
90 | CSc1ncccc1C(=O)NCc1ccccc1C(F)(F)F | 1.68%
91 | C(=C\c1nc2cccnc2[nH]1)/c1ccccc1 | -10.5%
92 | CCOC(=O)c1c(C)[nH]c(C)c1S(=O)(=O)NCC1CCCO1 (centres unmarked) | -5.94%
93 | CN(CCNC(=O)c1cc2c(O)nc3ccccc3c2s1)Cc1ccccc1 | 1.23%
94 | Cc1ccc(-c2noc(CNC(=O)C34CC5CC(CC(C5)C3)C4)n2)cc1 | 2.14%
95 | Cc1cccc(NS(=O)(=O)c2cccc(C(=O)Nc3cccc(C(=O)O)c3)c2)c1 | -3.55%
96 | CCC(=O)N1CC(=O)Nc2ccc(C)cc2C1c1ccccc1 (centres unmarked) | -3.77%
97 | CC(C)c1nc2sc3c(NCCCN(C)C)ncnc3c2c2c1COC(C)(C)C2 | 3.73%
98 | Cc1cc2nc(NC(=O)C3C4C=CC(C4)C3C(=O)O)sc2cc1C (centres unmarked) | -1.28%
99 | COCCCN1C(=O)C(O)=C(C(=O)c2ccccc2)C1c1ccc(C)cc1 (centres unmarked) | 5.12%
100 | COc1ccc(-n2nnc(-c3nsc(NC(=O)c4ccc(Cl)cc4)n3)c2C)cc1Cl | 4.23%
101 | Cc1cc(NC(=O)c2ccc(C(=O)Nc3cc(C)c(O)c(C)c3)cc2)cc(C)c1O | 4.07%

From PMC6919601, “Identification of Plasmodium dipeptidyl aminopeptidase allosteric inhibitors by high throughput screening” (PLoS ONE, 2019)
